Mutagenic call data for 11 compounds are collected here from PubChem BioAssay AID1259407 (Chemical Carcinogenesis Research Information System (CCRIS), 2018).

The data set has as its system CCRIS mutagenicity, Ames/micronucleus/aberration tests. Nature of the data set: CCRIS mutagenicity studies.
The mark [1] stands for this setting: Test System: AMES SALMONELLA TYPHIMURIUM, Strain/Indicator: TA100, Metabolic Activation: NONE, Method: PREINCUBATION

Structures are written as SMILES. “Also recorded” adds a separate entry of the source. For part of its entries the source gives two or more results. The list is limited to them. The rule behind the calls is not given here. An entry can have further records. The values listed for one entry differ for a reason that is not stated; some may be repeats, others may stem from another dose, organism or construct than stated. A tag in brackets gives the origin of a value. A, B and so on number the origins entry by entry. Signs of the kind (2×) give the number of equal values in this list.

Take `CNC(=O)/C=C(\C)OP(=O)(OC)OC`: the mutagenic call (Test System: AMES SALMONELLA TYPHIMURIUM, Strain/Indicator: TA1535, Metabolic Activation: NONE, Method: STANDARD PLATE) was “inactive; negative [study A] and active; positive [study B]”.

Consider `O=C(O)C(Cl)(Cl)Cl`, for which the mutagenic call is, setting by setting: (End Point: IN VITRO CHROMOSOMAL ABERRATIONS, Test System: HUMAN PERIPHERAL LYMPHOCYTES, Metabolic Activation: NONE) “active; positive; authors report that chromosomal damage is a result of ph changes induc; also recorded: inactive; negative”; (End Point: IN VITRO CHROMOSOMAL ABERRATIONS, Test System: HUMAN PERIPHERAL LYMPHOCYTES, Metabolic Activation: RAT, LIVER, S-9, AROCLOR 1254) “active; positive; authors report that chromosomal damage is a result of ph changes induc; also recorded: inactive; negative”.

As to `CN(C)N`, the mutagenic call (Test System: AMES SALMONELLA TYPHIMURIUM, Strain/Indicator: TA1537, Metabolic Activation: NONE, Method: PREINCUBATION) is “inactive; negative [study A] and active; positive [study B]”.

Take `Nc1ccc2ccccc2c1`: the mutagenic call (Test System: AMES SALMONELLA TYPHIMURIUM, Strain/Indicator: TA98, Metabolic Activation: RAT LIVER S-9, AROCLOR, Method: STANDARD PLATE) was “inactive; negative and active; positive”.

Consider `C/C=C/C=C/C=O`, for which the mutagenic call under setting [1] was “active; positive [sample A, study A] and inactive; negative [sample B, study B]”; the mutagenic call (Test System: AMES SALMONELLA TYPHIMURIUM, Strain/Indicator: TA100, Metabolic Activation: RAT LIVER S-9, AROCLOR 1254 (30%), Method: PREINCUBATION) was “inactive; negative and active; positive”.

In the case of `N#CC(Br)Br`, the mutagenic call (Test System: Ames Salmonella typhimurium, Strain/Indicator: TA100, Metabolic Activation: None, Method: Preincubation) was “active; positive (weak response; did not achieve doubling effect); also recorded: inactive; negative (2×)”; the mutagenic call (Test System: Ames Salmonella typhimurium, Strain/Indicator: TA1535, Metabolic Activation: Hamster, Liver, S-9, Aroclor 1254 (10%), Method: Preincubation) is “active; positive and inactive; negative”; the mutagenic call (Test System: Ames Salmonella typhimurium, Strain/Indicator: TA1535, Metabolic Activation: Rat, Liver, S-9, Aroclor 1254 (10%), Method: Preincubation) is “active; positive [study A] and inactive; negative [study A] and active; positive (weak response) [study B]”; the mutagenic call (Test System: Ames Salmonella typhimurium, Strain/Indicator: TA1537, Metabolic Activation: Hamster, Liver, S-9, Aroclor 1254 (10%), Method: Preincubation) is “active; positive (weak response) and inactive; negative (2×)”.

For `Nc1cccc2c(N)cccc12`, the mutagenic call was “inactive; negative [0.3 to 333.3 µg/plate] and active; positive [1 to 3333.3 µg/plate]” (Test System: AMES SALMONELLA TYPHIMURIUM, Strain/Indicator: TA98, Metabolic Activation: HAMSTER, LIVER, S-9, AROCLOR 1254, Method: STANDARD PLATE); “inactive; negative [0.3 to 333.3 µg/plate] and active; positive [1 to 3333.3 µg/plate]” (Test System: AMES SALMONELLA TYPHIMURIUM, Strain/Indicator: TA98, Metabolic Activation: HAMSTER, LIVER, S-9, Method: STANDARD PLATE); “inactive; negative [0.3 to 333.3 µg/plate] and active; positive [1 to 3333.3 µg/plate]” (Test System: AMES SALMONELLA TYPHIMURIUM, Strain/Indicator: TA98, Metabolic Activation: MOUSE, LIVER, S-9, AROCLOR 1254, Method: STANDARD PLATE); “inactive; negative [0.3 to 333.3 µg/plate] and inactive; negative [1 to 3333.3 µg/plate] and active; positive [3.3 to 3333.3 µg/plate]” (Test System: AMES SALMONELLA TYPHIMURIUM, Strain/Indicator: TA98, Metabolic Activation: MOUSE, LIVER, S-9, Method: STANDARD PLATE); “inactive; negative [0.3 to 333.3 µg/plate] and active; positive [1 to 3333.3 µg/plate]” (Test System: AMES SALMONELLA TYPHIMURIUM, Strain/Indicator: TA98, Metabolic Activation: RAT, LIVER, S-9, AROCLOR 1254, Method: STANDARD PLATE); “inactive; negative [0.3 to 333.3 µg/plate] and active; positive [1 to 3333.3 µg/plate] and inactive; negative [3.3 to 3333.3 µg/plate]” (Test System: AMES SALMONELLA TYPHIMURIUM, Strain/Indicator: TA100, Metabolic Activation: HAMSTER, LIVER, S-9, AROCLOR 1254, Method: STANDARD PLATE). Besides, the mutagenic call runs as follows: (Test System: AMES SALMONELLA TYPHIMURIUM, Strain/Indicator: TA100, Metabolic Activation: HAMSTER, LIVER, S-9, Method: STANDARD PLATE) “inactive; negative [0.3 to 333.3 µg/plate] and active; positive [1 to 3333.3 µg/plate]”; (Test System: AMES SALMONELLA TYPHIMURIUM, Strain/Indicator: TA100, Metabolic Activation: MOUSE, LIVER, S-9, AROCLOR 1254, Method: STANDARD PLATE) “inactive; negative [0.3 to 333.3 µg/plate] and active; positive [1 to 3333.3 µg/plate] and inactive; negative [3.3 to 3333.3 µg/plate]”; (Test System: AMES SALMONELLA TYPHIMURIUM, Strain/Indicator: TA100, Metabolic Activation: MOUSE, LIVER, S-9, Method: STANDARD PLATE) “active; positive [1 to 1000 µg/plate] and inactive; negative [3.3 to 3333.3 µg/plate]”; (Test System: AMES SALMONELLA TYPHIMURIUM, Strain/Indicator: TA100, Metabolic Activation: NONE, Method: STANDARD PLATE) “inactive; negative [0.3 to 333.3 µg/plate] and active; positive [1 to 1000 µg/plate] and inactive; negative [3.3 to 3333.3 µg/plate]”; (Test System: AMES SALMONELLA TYPHIMURIUM, Strain/Indicator: TA100, Metabolic Activation: RAT, LIVER, S-9, AROCLOR 1254, Method: STANDARD PLATE) “inactive; negative [0.3 to 333.3 µg/plate] and active; positive [1 to 3333.3 µg/plate]”; (Test System: AMES SALMONELLA TYPHIMURIUM, Strain/Indicator: TA100, Metabolic Activation: RAT, LIVER, S-9, Method: STANDARD PLATE) “inactive; negative [0.3 to 333.3 µg/plate] and active; positive [1 to 3333.3 µg/plate]”. The mutagenic call (Test System: AMES SALMONELLA TYPHIMURIUM, Strain/Indicator: TA1537, Metabolic Activation: HAMSTER, LIVER, S-9, Method: STANDARD PLATE) is “inactive; negative [0.3 to 333.3 µg/plate] and active; positive [1 to 1000 µg/plate] and inactive; negative [3.3 to 3333.3 µg/plate]”; the mutagenic call (Test System: AMES SALMONELLA TYPHIMURIUM, Strain/Indicator: TA1537, Metabolic Activation: MOUSE, LIVER, S-9, AROCLOR 1254, Method: STANDARD PLATE) is “inactive; negative [0.3 to 333.3 µg/plate] and active; positive [3.3 to 3333.3 µg/plate]”; the mutagenic call (Test System: AMES SALMONELLA TYPHIMURIUM, Strain/Indicator: TA1537, Metabolic Activation: NONE, Method: STANDARD PLATE) was “inactive; negative [0.3 to 333.3 µg/plate] and inactive; negative [1 to 1000 µg/plate] and active; positive [3.3 to 3333.3 µg/plate]”; the mutagenic call (Test System: AMES SALMONELLA TYPHIMURIUM, Strain/Indicator: TA1537, Metabolic Activation: RAT, LIVER, S-9, AROCLOR 1254, Method: STANDARD PLATE) was “inactive; negative [0.3 to 333.3 µg/plate] and active; positive [1 to 3333.3 µg/plate]”; the mutagenic call (Test System: AMES SALMONELLA TYPHIMURIUM, Strain/Indicator: TA1538, Metabolic Activation: HAMSTER, LIVER, S-9, AROCLOR 1254, Method: STANDARD PLATE) is “inactive; negative [0.3 to 333.3 µg/plate] and active; positive [1 to 3333.3 µg/plate]”; the mutagenic call (Test System: AMES SALMONELLA TYPHIMURIUM, Strain/Indicator: TA1538, Metabolic Activation: HAMSTER, LIVER, S-9, Method: STANDARD PLATE) is “inactive; negative [0.3 to 333.3 µg/plate] and active; positive [1 to 3333.3 µg/plate] and inactive; negative [3.3 to 3333.3 µg/plate]”. The mutagenic call (Test System: AMES SALMONELLA TYPHIMURIUM, Strain/Indicator: TA1538, Metabolic Activation: RAT, LIVER, S-9, AROCLOR 1254, Method: STANDARD PLATE) was “inactive; negative [0.3 to 333.3 µg/plate] and inactive; negative [3.3 to 3333.3 µg/plate] and active; positive [3.3 to 3333.3 µg/plate]”.

Consider `CCN(CC)N=O`, for which the mutagenic call by setting is: under setting [1], “inactive; negative [study A] and active; positive [study B]”; (Test System: E. COLI, Strain/Indicator: WP2 UVRA, Metabolic Activation: MOUSE, LIVER, S-9, AROCLOR 1254, Method: PREINCUBATION) “active; positive and inactive; negative”; (Test System: E. COLI, Strain/Indicator: WP2 UVRA, Metabolic Activation: MOUSE, LIVER, S-9, Method: PREINCUBATION) “active; positive and inactive; negative”; (Test System: E. COLI, Strain/Indicator: WP2 UVRA, Metabolic Activation: NONE, Method: PREINCUBATION) “active; positive and inactive; negative”; (Test System: E. COLI, Strain/Indicator: WP2 UVRA, Metabolic Activation: RAT, LIVER, S-9, AROCLOR 1254, Method: PREINCUBATION) “active; positive and inactive; negative”; (Test System: E. COLI, Strain/Indicator: WP2 UVRA, Metabolic Activation: RAT, LIVER, S-9, AROCLOR 1254, Method: STANDARD PLATE) “active; positive and inactive; negative”.

In the case of `CN(C)c1ccc(N)cc1`, where the note is “End Point: IN VITRO CHROMOSOMAL ABERRATIONS, Test System: CHL CELLS, Metabolic Activation: NONE”, the mutagenic call was “inactive; negative and active; positive (structural changes) (2×)”.

Regarding `N[C@@H]1CCCCN1.[Cl][Pt][Cl]`, the mutagenic call (Test System: AMES SALMONELLA TYPHIMURIUM, Strain/Indicator: TA98, Metabolic Activation: RAT, LIVER, S-9, AROCLOR 1254, Method: PREINCUBATION) is “active; positive and inactive; negative”.

Consider `C[C@H](CCC(=O)O)[C@H]1CC[C@H]2[C@@H]3[C@H](O)C[C@@H]4C[C@H](O)CC[C@]4(C)[C@H]3CC[C@]12C`, for which the mutagenic call reads like this: (Test System: AMES SALMONELLA TYPHIMURIUM, Strain/Indicator: TA98, Metabolic Activation: NONE, Method: FLUCTUATION TEST) “inactive; negative [study A] and active; positive [study B]”; (Test System: AMES SALMONELLA TYPHIMURIUM, Strain/Indicator: TA100, Metabolic Activation: NONE, Method: FLUCTUATION TEST) “inactive; negative [study A] and active; positive [study B]”.
